Experimental data reported in the supplement of paper PMC11417369.
The list shows a part of the results.

These sequences were tested on PfSIP2 AP2 domain 1 (GST-tagged) (assay: gcPBM binding intensity (ln(normalized median fluorescence intensity)); higher = stronger DNA binding).
In short: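 GST-tagged P. falciparum DNA-binding domains produced in E. coli were incubated for 1 h on an Agilent 4 × 180k array of primer-extended double-stranded 36-bp intergenic genomic probes with negative controls. Binding intensity is the highest Masliner-normalised natural-log median intensity across replicate spots of either probe orientation, with bound protein detected by Alexa488 anti-GST antibody at 488 nm.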

Sequence	gcPBM binding intensity (ln)
AGCAAAACAAAAAAATTAAAATTAACATATAATCAT [GTGCAC_negctrl_site393]	6.7
TTTTGAAGCTTTAAAACATATATATATATATATATA [CACACA_negctrl_site184]	9.76
AATAAGAGGATACATTGTACATAAAAAAAAAAAATA [XGTACX_site1815]	6.71
ATGTTCTTATTATTGGTGCAAGAATACACAAGAAAA	9.71
TATTGTTCTTATTTAGTGCATATATAATATAATATA [GTGCAC_site9827]	9.38
AACACATAATAAAATTGTACCCAACATTTCTTTTGA [XGTACX_site8061]	6.96
TATGTGAATAAATAAGCACACATAAACACATATATA [CACACA_site9359]	7.04
ATAAAAATTTAAAAAGAACACACGAAAGAAGGACTT [CACACA_site3929]	7.04
TATATAAACACGTACACACACATATCTGTATTTATA [CACACA_site5858]	7.39
AATACCTACCAAACATGTACATACGCTTCTCAAATA [XGTACX_site5535]	7.21
GTGAGCTCAGACTACACACACAAAGAAAAAAATAAA [CACACA_site1553]	6.76
ATATTTTTAGGTGATTATTATTCGGAGAAGCGAATT [CACACA_negctrl_site1097]	6.68
AACAAATACAGACACACACACACACCCAAAAAAAAA [CACACA_site515]	7.29
ATACAACAAAAATAAGCACACACAAATATACATACA [CACACA_site9201]	7.15
ATTAAATGTTATATTTGTACATATTATATATATATA [XGTACX_site5095]	9.05
TCCATATTTGTTCACACACACACATATTTATATATA [CACACA_site3570]	7.31
TTTGTTATTTTTTATTGTACTTTTTTTCTTTCATAA [XGTACX_site4302]	7.11
TTCATTTTTTATTATAGTACACATAATATTTGCAGA [XGTACX_site4032]	7.33
TTTTTTAAATGTATTAAAATTATATATATATATATA [GTGCAC_negctrl_site570]	9.44
ATACATAAATTTAGAAGTACATAACAAATTTTTAAA [XGTACX_site7448]	7.1
AATCAAAACAACAATAGTACATAAAAAAACAAAACA [XGTACX_site4181]	6.99
TATAATAATAATTATACATGCATGAATATTTATATG [TGCATGCA_site811]	7.01

Sequence	gcPBM binding intensity (ln)
AAAAAAAAAAAAAACACACACACAAATACAAATGGT [CACACA_site1721]	7.3
TTTCTTATTTTGGATTGTACGTATATTTTTCATTTT [XGTACX_site224]	7.07
TTACACATGAGAAAATGTACATATAATAAAATATGT [XGTACX_site904]	6.96
TTATATTTCAATCATATTGTCACAAGTCATATTTAT [GTGCAC_negctrl_site366]	6.8
ATGGACAAGTTAAACGCACACAAATATATACACCCA [CACACA_site8478]	7.14
AATAAAAAAAATAGCATACACACATATATACATATA [CACACA_site659]	6.97
AACAAAAAAAAAAAAAAAAAAAAAAAAAAAAAAATG [CACACA_negctrl_site1127]	7.01
TATATATATATGTGCGTGCACGTTACCTTGCTGTTT	9.48
TTTCCAAATACAACTACACACAAACAAAAGTTATAT [CACACA_site6544]	7.06
AAATTTAACAACTTCAAACACACAATATATATATAT [CACACA_site2092]	8.91
ATGAATACAAAATTATACAAAATTATCAAAAGTATG [CACACA_negctrl_site1453]	6.82
TGCAGTCTGGAGAAACGTACATAGTATCTGGTAGCT [XGTACX_site4937]	6.77
ATACATAAATATATATGTACATATATATATATATAT [XGTACX_site1055]	9.29
AAAATATATTTAAATTGTACACGTTACCATAACAAT [XGTACX_site2598]	6.95
CTTTTTATTTAGAACACACACAAAAAAAAAAAAAAA [CACACA_site1761]	7.04
ATATATTAATAATTTTGTACGCATTTCCTTTTTATT [XGTACX_site1638]	7.26
GAAAATATTTCCGTATGTACTTATTTTAGTCTACTA [XGTACX_site471]	7.09
AAAAAAAAAAAAAAATGTACAAATAAAGAAATATGA [XGTACX_site4371]	7.31
AATATTTTCTTGTACGCATGCACATCCAAATTATAT [TGCATGCA_site873]	7.46
TGACCTGTTCAGGTAACACACATATAAACACATACA [CACACA_site4186]	7.03
AGGTTCTTTTTAAATGGTACACATAATTTGAAGATA [XGTACX_site400]	7.22
GTGTATAGAATGGTTTCTTTTAAGGTTTTTATTTTT [CACACA_negctrl_site564]	7.24

Sequence	gcPBM binding intensity (ln)
TCTTAAAAGGGGAATGGAATGGAGAAAATGAAATAA [GTGCAC_negctrl_site30]	6.96
ATACCCACTTAAAATACACACACACCGAAAAAAAAA [CACACA_site8867]	7.35
ATGGCATAAATATATGCACACACAAAAAAAAAAAAA [CACACA_site7902]	7.06
TTTCTTTTTTTTTGAAGTACATAAAAATATAAAAAA [XGTACX_site311]	7.22
ATATATATATGTATGTATATATATATATATATGTTT [CACACA_negctrl_site248]	9.26
AATATTATAAAATATTGTACTTAAAAAATTATTAAA [XGTACX_site2469]	6.7
TAAATTTTTTCTTTTTGTACATATTTTAAAAATGTT [XGTACX_site7526]	6.9
AAAAAGAAAAAGAGCACACAAAAATATTTAACCTTT [CACACA_site2747]	6.62
GTTATATATGATGGAAGCACTTGGAAGAGGGAAATA [CACACA_negctrl_site1831]	7.26
GATAAATATTTAATATGTACATATATTATATATATA [XGTACX_site117]	8.02
AAAAATAAAAAAATAAAAAATAAAAAAATAAAAAAT [CACACA_negctrl_site1425]	6.79
TATATACACACCGTGTGTACATATACATTAACTGAA [XGTACX_site7120]	6.98
ATTAAAGTTATAAATTCACACATGTAAATGTATTTA [CACACA_site5279]	6.81
ATATATTATATATGCGCACACACGAATTTTTTTTTT [CACACA_site2393]	7.97
TACACTAATGACAGTTGTACTTTTATTCGATAGAAT [XGTACX_site738]	7.05
TATATATATATAATATGTACATATATACATGCCTTG [XGTACX_site2791]	8.88
ACTTTTTTTTTGTGTGTGCACTCGATTATATACATA [GTGCAC_site9846]	10.3
TCGAAAATGACGAATGGTACAGTATGTATAAAAATA [XGTACX_site1258]	7.05
TATATATACATACGTACACACAAATATTAAAATATA [CACACA_site1951]	7.41
TCAAAATTGCTTTGTTGTACTAATAAAATTTATTAC [XGTACX_site1121]	6.99
TATCTGTAAACATATTCACACACATAAATTCGCATA [CACACA_site8557]	7.01
TCAAAAGAAATAAAAACATGCATAAAAGTAAAAATA [TGCATGCA_site832]	7.06

Sequence	gcPBM binding intensity (ln)
TGTTTTTCATAGTGCACACATAACCAAAAATAGTAT [CACACA_site3150]	10.8
ACGTATATTTTTACATGTACATATGTAAAAAATTTT [XGTACX_site4587]	7.15
TTATGATAATTTTGCACACACTTAGGAAAAATTATG [CACACA_site4949]	7.5
AAATAATATATATACACACACACATATATATATACA [CACACA_site554]	7.16
TTTTATTTATCATACACACACAGAAAAAAAAAAAAA [CACACA_site158]	7.14
GAATGTTTATTATATGCATGTTATATATATGAATAT [TGCATGCA_site4]	7.02
CCTTTCCTTTTATAAGTGCATATAACAAATGTATAC [GTGCAC_site9872]	8.88
AATAATGAAAAATCAAATAACCTAAATTACAACTGT [XGTACX_negctrl_site65]	6.91
TTTCACACTATTTCATGTACACATAAAATTATATAT [XGTACX_site8692]	7.39
TAAATATAATAAAAGTGTACTTACACTTACATATAA [XGTACX_site1206]	6.83
AACAGATAAAAGGGTACACACATATATACATGTACA [CACACA_site225]	7.04
ATATAATAAGGTTAAGCACACATATTACATATATAA [CACACA_site9110]	7.09
TTGTATATATTTCCTTGTACGTAATAATTCTTATTG [XGTACX_site3938]	7.19
TTTTATTCCGTTTCAAAATAAGAAAAAAAAAAAAAT [CACACA_negctrl_site1199]	6.95
TACTTCTCATTTGTTGTTGTATTTTAGGCATACCCT [XGTACX_negctrl_site385]	6.96
CTTATATATACGTGCACACATATATATAAGATATAT [CACACA_site1752]	10
AAAAATATAAATGACACACACTTAAAAACAAAGAAA [CACACA_site4540]	6.84
ATTTAAAAAAAAAAAAATAAATAACTTGAAAAACAA [GTGCAC_negctrl_site318]	6.72
AAGGATAATAGGTACACATGCAATATTCATATATAC [TGCATGCA_site523]	7
TTATATACATAAAAATGTACTTTTTATAAAATATAT [XGTACX_site8281]	7.15
AAGTTAGTATTCTGCTGTACTTCTATATATAAGTGT [XGTACX_site7678]	7.1
ACAACATTTCTCAAATGTACATAATATAATTTATAT [XGTACX_site3224]	7
